# Measurements reported in the supplement of paper PMC8728848.
# Some of the results follow.
# B1: Epa13 (Candida glabrata) (protein)
# chain: MGSSHHHHHHSSGLVPRGSHMASDSSENGYAHGCSPSIRAKLKPGLSMEIYSYALRPTDDHCWDSAYLDPMFPRTGYLTHKLLGKAEGIIGPLNFLAKNPACIPAVSTLPLAFHFPKPFTITNFTMLLYGYLSPKKTGKYTFKLLADDLLLMNFGADNAFDCCSHDATKDNIGEYVAYSVWPGVNKNVTVYLESGIYYPLRLFFNNRDAIAQLDFAYYFNDSPIRQTDFSGMFFSIPDSVKCPANI
# Legend:
# Experiment in all cases: glycan array binding signal (z-score within array); higher = stronger binding
# Details in all cases: glycan notation: IUPAC condensed, linker removed
# [1] = target: Fuc(a1-2)[Gal(a1-4)]Gal(b1-4)GlcNAc
# Method in brief: (§1)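 Glycan array data were curated from 3228 arrays in the Consortium for Functional Glycomics database and kept only where the protein sequence was available. Glycan names were converted to IUPAC-condensed notation, and columns mapping to the same glycan were averaged. The binding signal is a within-array Z-score, averaged across arrays of the same protein sequence at different concentrations or buffers and across linkers. Negative Z-scores can be read as non-binding.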
# [2] = target: Fuc(a1-2)[GalNAc(a1-3)]Gal
# Method in brief: as §1
# [3] = target: Fuc(a1-2)[GalNAc(a1-3)]Gal(b1-3)GalNAc(a1-3)[Fuc(a1-2)]Gal(b1-4)GlcNAc
# Method in brief: as §1
# [4] = target: Fuc(a1-2)[GalNAc(a1-3)]Gal(b1-3)GalNAc(b1-3)Gal(a1-4)Gal(b1-4)Glc
# Method in brief: as §1
# [5] = target: Fuc(a1-2)[GalNAc(a1-3)]Gal(b1-3)GlcNAc
# Method in brief: as §1
# [6] = target: Fuc(a1-2)[GalNAc(a1-3)]Gal(b1-3)GlcNAc(b1-2)Man(a1-3)[Fuc(a1-2)[GalNAc(a1-3)]Gal(b1-3)GlcNAc(b1-2)Man(a1-6)]Man(b1-4)GlcNAc(b1-4)GlcNAc
# Method in brief: as §1
# [7] = target: Fuc(a1-2)[GalNAc(a1-3)]Gal(b1-3)GlcNAc(b1-2)Man(a1-3)[Fuc(a1-2)[GalNAc(a1-3)]Gal(b1-3)GlcNAc(b1-2)Man(a1-6)]Man(b1-4)GlcNAc(b1-4)[Fuc(a1-6)]GlcNAc
# Method in brief: as §1
# [8] = target: Fuc(a1-2)[GalNAc(a1-3)]Gal(b1-3)GlcNAc(b1-3)GalNAc
# Method in brief: as §1
# [9] = target: Fuc(a1-2)[GalNAc(a1-3)]Gal(b1-3)GlcNAc(b1-6)GalNAc
# Method in brief: as §1
# [10] = target: Fuc(a1-2)[GalNAc(a1-3)]Gal(b1-4)Glc
# Method in brief: as §1
# [11] = target: Fuc(a1-2)[GalNAc(a1-3)]Gal(b1-4)GlcNAc
# Method in brief: as §1
# [12] = target: Fuc(a1-2)[GalNAc(a1-3)]Gal(b1-4)GlcNAc(b1-2)Man
# Method in brief: as §1
# [13] = target: Fuc(a1-2)[GalNAc(a1-3)]Gal(b1-4)GlcNAc(b1-2)Man(a1-3)[Fuc(a1-2)[GalNAc(a1-3)]Gal(b1-4)GlcNAc(b1-2)Man(a1-6)]Man(b1-4)GlcNAc(b1-4)GlcNAc
# Method in brief: as §1
# [14] = target: Fuc(a1-2)[GalNAc(a1-3)]Gal(b1-4)GlcNAc(b1-2)Man(a1-3)[Fuc(a1-2)[GalNAc(a1-3)]Gal(b1-4)GlcNAc(b1-2)Man(a1-6)]Man(b1-4)GlcNAc(b1-4)[Fuc(a1-6)]GlcNAc
# Method in brief: as §1
# [15] = target: Fuc(a1-2)[GalNAc(a1-3)]Gal(b1-4)GlcNAc(b1-3)Gal(b1-4)GlcNAc
# Method in brief: as §1
# [16] = target: Fuc(a1-2)[GalNAc(a1-3)]Gal(b1-4)GlcNAc(b1-3)Gal(b1-4)GlcNAc(b1-3)Gal(b1-4)GlcNAc
# Method in brief: as §1
# [17] = target: Fuc(a1-2)[GalNAc(a1-3)]Gal(b1-4)GlcNAc(b1-3)GalNAc
# Method in brief: as §1
# [18] = target: Fuc(a1-2)[GalNAc(a1-3)]Gal(b1-4)GlcNAc(b1-3)[Fuc(a1-2)[GalNAc(a1-3)]Gal(b1-4)GlcNAc(b1-6)]GalNAc
# Method in brief: as §1
# [19] = target: Fuc(a1-2)[GalNAc(a1-3)]Gal(b1-4)GlcNAc(b1-6)GalNAc
# Method in brief: as §1
# [20] = target: Fuc(a1-2)[GalNAc(a1-3)]Gal(b1-4)[Fuc(a1-3)]GlcNAc
# Method in brief: as §1
# [21] = target: Fuc(a1-2)[GalNAc(a1-3)]Gal(b1-4)[Fuc(a1-3)]GlcNAc(b1-3)GalNAc
# Method in brief: as §1
# [22] = target: Fuc(a1-2)[GalNAc(a1-4)]Gal(b1-4)GlcNAc
# Method in brief: as §1
# [23] = target: Fuc(a1-2)[GalNAc(b1-3)]Gal
# Method in brief: as §1
# Fuc(a1-3)GlcNAc = target: Fuc(a1-3)GlcNAc
# Method in brief: as §1
# [24] = target: Fuc(a1-3)[Gal(b1-4)]Glc6S
# Method in brief: as §1
# [25] = target: Fuc(a1-3)[Gal(b1-4)]GlcNAc
# Method in brief: as §1
# [26] = target: Fuc(a1-3)[Gal(b1-4)]GlcNAc(b1-2)Man
# Method in brief: as §1
# [27] = target: Fuc(a1-3)[Gal(b1-4)]GlcNAc(b1-2)Man(a1-3)[Fuc(a1-3)[Gal(b1-4)]GlcNAc(b1-2)Man(a1-6)]Man(b1-4)GlcNAc(b1-4)GlcNAc
# Method in brief: as §1
# [28] = target: Fuc(a1-3)[Gal(b1-4)]GlcNAc(b1-2)Man(a1-3)[Fuc(a1-3)[Gal(b1-4)]GlcNAc(b1-2)Man(a1-6)]Man(b1-4)GlcNAc(b1-4)[Fuc(a1-6)]GlcNAc
# Method in brief: as §1
# [29] = target: Fuc(a1-3)[Gal(b1-4)]GlcNAc(b1-3)Gal(b1-3)[Fuc(a1-4)]GlcNAc
# Method in brief: as §1
# [30] = target: Fuc(a1-3)[Gal(b1-4)]GlcNAc(b1-3)Gal(b1-4)[Fuc(a1-3)]GlcNAc
# Method in brief: as §1
# [31] = target: Fuc(a1-3)[Gal(b1-4)]GlcNAc(b1-3)Gal(b1-4)[Fuc(a1-3)]GlcNAc(b1-3)Gal(b1-4)[Fuc(a1-3)]GlcNAc
# Method in brief: as §1
# [32] = target: Fuc(a1-3)[Gal(b1-4)]GlcNAc(b1-3)GalNAc
# Method in brief: as §1
# [33] = target: Fuc(a1-3)[Gal(b1-4)]GlcNAc(b1-6)GalNAc
# Method in brief: as §1
# [34] = target: Fuc(a1-3)[Gal(b1-4)]GlcNAc(b1-6)[Gal(b1-3)GlcNAc(b1-3)]Gal(b1-4)Glc
# Method in brief: as §1
# [35] = target: Fuc(a1-3)[Gal(b1-4)]GlcNAc6S
# Method in brief: as §1
# [36] = target: Fuc(a1-3)[Gal3S(b1-4)]Glc
# Method in brief: as §1
# [37] = target: Fuc(a1-3)[Gal3S(b1-4)]GlcNAc
# Method in brief: as §1
binder,measurement,setting,value
B1,glycan array binding signal (z-score),[1],9.27
same,glycan array binding signal (z-score),[2],-0.409
same,glycan array binding signal (z-score),[3],-0.396
same,glycan array binding signal (z-score),[4],-0.231
same,glycan array binding signal (z-score),[5],-0.092
same,glycan array binding signal (z-score),[6],-0.555
same,glycan array binding signal (z-score),[7],-0.076
same,glycan array binding signal (z-score),[8],0.344
same,glycan array binding signal (z-score),[9],-0.155
same,glycan array binding signal (z-score),[10],-0.307
same,glycan array binding signal (z-score),[11],-0.539
same,glycan array binding signal (z-score),[12],-0.081
same,glycan array binding signal (z-score),[13],-0.51
same,glycan array binding signal (z-score),[14],-0.043
same,glycan array binding signal (z-score),[15],-0.383
same,glycan array binding signal (z-score),[16],-0.206
same,glycan array binding signal (z-score),[17],-0.377
same,glycan array binding signal (z-score),[18],0.053
same,glycan array binding signal (z-score),[19],-0.44
same,glycan array binding signal (z-score),[20],0.257
same,glycan array binding signal (z-score),[21],1.95
same,glycan array binding signal (z-score),[22],-0.453
same,glycan array binding signal (z-score),[23],-0.312
same,glycan array binding signal (z-score),Fuc(a1-3)GlcNAc,-0.4
same,glycan array binding signal (z-score),[24],-0.36
same,glycan array binding signal (z-score),[25],-0.454
same,glycan array binding signal (z-score),[26],-0.124
same,glycan array binding signal (z-score),[27],-0.041
same,glycan array binding signal (z-score),[28],0.905
same,glycan array binding signal (z-score),[29],-0.279
same,glycan array binding signal (z-score),[30],-0.164
same,glycan array binding signal (z-score),[31],-0.429
same,glycan array binding signal (z-score),[32],0.137
same,glycan array binding signal (z-score),[33],0.527
same,glycan array binding signal (z-score),[34],-0.385
same,glycan array binding signal (z-score),[35],0.147
same,glycan array binding signal (z-score),[36],0.372
same,glycan array binding signal (z-score),[37],-0.351
